The list shows a part of the results. At the low end of the ranking the order means little.
Biological target: SIX1 homeodomain (reference allele) (UniProt Q15475)
Assay: universal protein binding microarray
Details: Universal all-10-mer PBM (8x60K, AMADID 030236), 300 nM GST-tagged protein, Alexa Fluor 488 anti-GST; buffer, salt, pH and temperature not stated; high values mean tight binding; most listed sequences are background and not binding sites; double strand, one strand shown

| Sequence | binding signal [E-score] |
| --- | --- |
| CCCTGGAA | -0.0182 |
| ATGATGCG | 0.0353 |
| AATAGTAT | 0.251 |
| CCGCGCAG | -0.0678 |
| ACTTTTCG | -0.2 |
| ACGGATCT | 0.324 |
| CAGGGGAG | 0.136 |
| ACGAGTGC | -0.307 |
| AACATGGC | -0.2 |
| CAGGCTGG | -0.0958 |
| AATGAATA | 0.096 |
| CCTGAAAA | -0.268 |
| GCGATGGA | 0.0296 |
| AAGAATCA | -0.0908 |
| ACCCGTCA | -0.107 |
| CAAGATCA | 0.242 |
| AGCTGCGC | -0.0439 |
| TCTTGTCA | -0.158 |
| CCGTATCA | 0.486 |
| CGTCGAGA | -0.0141 |
| CCAGGACC | -0.107 |
| GTCCCTTA | -0.0102 |

| Sequence | binding signal [E-score] |
| --- | --- |
| ATATACAG | 0.276 |
| AAAGACCT | -0.27 |
| CTCAGGGA | 0.112 |
| CTCCACAC | -0.0193 |
| ATGGGGTA | 0.163 |
| ACGTTTTC | -0.195 |
| CGTGTCAC | 0.196 |
| ACTACCTG | -0.169 |
| CCTGTAGA | 0.00761 |
| AGGGTATA | 0.407 |
| CCTAGACC | -0.0747 |
| AACGATAT | 0.408 |
| CTTACTTC | -0.133 |
| AGGGTGCA | -0.0169 |
| ACTCAGCC | -0.244 |
| AGCCGATG | 0.0858 |
| AGGTTAGG | -0.0245 |
| GTCGGGAA | -0.00536 |
| CAACACAG | -0.147 |
| TGATCCCA | 0.376 |
| CTTCTGAA | -0.0211 |
| ACCATGGT | 0.196 |

| Sequence | binding signal [E-score] |
| --- | --- |
| CGCGCGTA | 0.0493 |
| ACCTAGAA | -0.0812 |
| ATCGCTCA | 0.192 |
| AACTAACG | -0.16 |
| AACATATA | 0.235 |
| AACCATGC | 0.0441 |
| CGATTGTA | 0.023 |
| CTAGGTGC | -0.0986 |
| CCTACGAG | -0.0354 |
| AATTCGAG | -0.153 |
| ACCAGAGC | -0.121 |
| AGATGTAC | -0.118 |
| GAGTCCCA | -0.219 |
| TCGAGCGA | -0.0916 |
| CGCCCCAC | 0.0384 |
| CAATTCAC | -0.0788 |
| AACTTTAG | -0.147 |
| CTGCATGC | -0.164 |
| ACCGTTCC | -0.151 |
| CATTCATC | -0.145 |
| GCGGGCGA | -0.0854 |
| GTGGGGGA | 0.0152 |

| Sequence | binding signal [E-score] |
| --- | --- |
| GCCTATAC | 0.0519 |
| TATGGAAA | -0.0686 |
| CCGACCTA | 0.0995 |
| AGGGTTGA | 0.0587 |
| AGATCAGA | 0.215 |
| CTAGAATA | 0.125 |
| AACCTCTT | -0.0825 |
| CGATGTGA | 0.0964 |
| TGCTACCA | -0.128 |
| AAAGTTGC | -0.218 |
| ACGTAATC | -0.0574 |
| ATCGGTCC | 0.0975 |
| ACGCGGGA | 0.105 |
| ACGTGAAG | -0.0195 |
| AACCGTGA | -0.0427 |
| AGCCAGGG | -0.0249 |
| AGATAGAT | 0.23 |
| CAATTACA | -0.0413 |
| GACTTGAA | -0.238 |
| AGCTCCAT | -0.0632 |
| ACGACAGG | -0.0819 |
| ATCATATG | 0.281 |

| Sequence | binding signal [E-score] |
| --- | --- |
| AGTGTTCA | -0.198 |
| ATAAGGCC | -0.133 |
| GAGAGAAA | -0.34 |
| CGGCATAC | 0.0306 |
| GACCCCCC | -0.0123 |
| AGTGATAG | 0.32 |
| GCCGTACC | 0.0248 |
| TAGGCGCA | 0.0473 |
| AAACAAAA | -0.336 |
| GCTGCAGA | -0.021 |
| CGATATAA | 0.243 |
| TAAGATGA | 0.0389 |
| TCTCAACA | 0.0997 |
| ACGGTCTC | 0.0782 |
| GCGGAAGC | -0.0462 |
| GCCCGAGC | -0.183 |
| GCAGCGAA | -0.363 |
| TAGCCAGA | 0.0575 |
| GCGGTCGA | -0.126 |
| TGCATACA | 0.0548 |
| CATCCCTA | 0.146 |

Source: publication PMC10668032
